In PubChem BioAssay (NCI):
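Briefly, cells in 96-well plates were exposed to five compound concentrations for 48 h, and endpoints were estimated by linear interpolation. Here, GI50 denotes the concentration required for 50% inhibition of growth. The concentration for full growth arrest is given as TGI.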

These compounds were tested on NCI-H322M lung (assay: DTP human tumour cell line panel, 48 h).

SMILES | GI50 | TGI
Cc1cc(C2CC(O)C(CO)O2)c(Cl)cc1Cl (stereo unspecified) | > 100 µM | > 100 µM
COc1ccc2c(c1)NC(=O)CN2c1nc(NC2CC2)nc2ccccc12 | – | > 100 µM
COc1cc2c[n+](C)c3c4cc(OC)c(OC)cc4c(OCc4ccccc4)cc3c2cc1OC | – | > 41 µM
c1ccc(C(NC2CCCCC2NCCNC2CCCCC2NC(c2ccccc2)(c2ccccc2)c2ccccc2)(c2ccccc2)c2ccccc2)cc1 (stereo unspecified) | – | > 100 µM
C=C1C(=O)OC2/C=C(/CO)C3(O)CC(O)C(C)(CC(OC(=O)/C(C)=C/C)C12)O3 (stereo unspecified) | – | > 100 µM
c1ccc([Si](OCCN2CC2)(c2ccccc2)c2ccccc2)cc1 | – | 29.5 µM
CC1=NN(C(=O)CC(=O)Nc2ccccc2)C(=O)C1N=Nc1ccc(C(=O)O)cc1 (stereo unspecified) | – | > 100 µM
CC1(C)NC(C)(C)/C(=N\O)C(=NO)/C1=N/O | – | > 100 µM
O=S(=O)(Nc1ccc(Cl)cc1)c1ccc(-c2cnc(C3CC3)o2)cc1 | 3.42 µM | 18.2 µM
CCCN(CCC)c1ccc(CO)c(Cl)c1 | 55.9 µM | > 100 µM
O=[N+]([O-])c1ccc2c(c1)C(=NO)c1cc([N+](=O)[O-])ccc1-2 | 20.4 µM | > 100 µM
CSc1ncnc2c1cnn2Cc1cn(CCCCO)nn1 | – | > 100 µM
O=C1c2cccc(O)c2C(=O)c2cccc(O)c21 | – | > 100 µM
COC(=O)c1cc(C)ccc1/C=C1\Cc2cccc(C)c2C1=O | – | > 100 µM
O=C(N/N=C/c1c(Cl)cccc1Cl)c1cccnc1Nc1cccc(C(F)(F)F)c1 | 3.82 µM | > 100 µM
Cc1cc(Oc2ccccc2)ccc1Nc1ncnc2ccc(-c3cnc(Cl)c(NS(C)(=O)=O)c3)cc12 | 1.2 µM | 4.03 µM
c1ccc2c(c1)CCN2CCN1CCc2ccccc21 | – | > 10 µM
CC1OC(OC2C(O)CC(OC3C(O)CC(OC4CCC5(C)C(CCC6C5CCC5(C)C(C7=CC(=O)OC7)CCC65O)C4)OC3C)OC2C)CC(O)C1O (stereo unspecified) | 0.075 µM | 0.469 µM
O=CN/N=C/c1ccc(Cl)c([N+](=O)[O-])c1 | 0.398 µM | > 100 µM
O=c1ccc2nc(C(F)(F)F)nn(-c3ccccc3)c-2c1 | 18.5 µM | 33.6 µM
O=C(OCCOC(=O)c1ccc2c(c1)C1(SCCS1)c1ccccc1-2)c1ccc2c(c1)C1(SCCS1)c1ccccc1-2 | – | > 100 µM
CCOC(=O)c1cn2c(n1)sc1cc(C)c(C)cc12 | – | 37.7 µM
O=Cc1cn(Cc2ccc(Cl)cc2)c2ccccc12 | 4.87 µM | > 100 µM
CCN(CC)CCCNc1[nH]ncc2cc3c(nc4ccccc43)c(C)c12 | – | 17.8 µM

SMILES | GI50 | TGI
COc1ccc2nc3cccc([N+](=O)[O-])c3c(NCCNCCO)c2c1 | 0.0844 µM | 0.77 µM
NC(=O)NN/C=C(/C=Nc1ccccc1)[N+](=O)[O-] | – | > 100 µM
CC1=C(C(=O)N[C@@H](CC(C)C)C(=O)O)N2C(=O)[C@@H](NC(=O)[C@@H](N)Cc3ccccc3)[C@H]2SC1 | – | > 100 µM
CC(O)CCc1ccc(Oc2c3ccccc3nc3occc23)cc1 (stereo unspecified) | 6.1 µM | 21.1 µM
CC1(C)C2CCC13C(=O)C1OC3(C2)C2C(=O)N(c3ccccc3)C(=O)C12 (stereo unspecified) | – | > 100 µM
NCCN.O=C([O-])C(=O)[O-].O=C([O-])C(=O)[O-].[Co+3].[K+] | > 100 µM | > 100 µM
S=C(Nc1ccccc1)Nc1ccccc1SC(/C=C/NNC1=NC(c2ccccc2)C(c2ccccc2)=NN1)c1ccccc1 (stereo unspecified) | – | > 100 µM
COC(=O)C1Cc2c([nH]c3ccccc23)C(c2ccccc2O)N1 (stereo unspecified) | – | > 100 µM
NCCc1ccc2oc3cc(=O)c4ccccc4c-3nc2c1 | – | 10.1 µM
COc1ccc(OC)c2[nH]c(Sc3c([N+](=O)[O-])ncn3C)nc12 | – | 91.2 µM
CN/N=C(\C)c1c(O)cc(C)oc1=O | – | > 100 µM
CCOC(=O)/C(SC#N)=C(/N)N1CCCC1 | – | > 100 µM
COC(=O)/C1=C/c2c([nH]c3ccccc23)/C(C(=O)OC)=C\c2c1[nH]c1ccccc21 | – | > 50 µM
CC(C)=CC(=O)OC1C(CO)OC(Oc2cc(O)c3c(=O)cc(-c4ccc(O)c(O)c4)oc3c2)C(OC2OC(C)C(O)C(O)C2O)C1O (stereo unspecified) | > 100 µM | > 100 µM
Cc1cc2c3ccccc3nc2c2cc[nH]c(C)c12 | – | > 100 µM
COC(=O)C1=C(C)C(=O)[C@H]2C(C(=O)OC)CCCC[C@@H]12 (stereo partly specified) | – | > 100 µM
COc1ccc(N2CCN(C(=O)c3ccc(C(F)(F)F)nc3Nc3cc(Cl)ccc3C)CC2)cc1 | 10.8 µM | 32.5 µM
CCOC(=O)c1ccc(NC(=O)O/N=C(/Cl)CC)cc1 | – | 30.5 µM
O=C(CCCCN1CCOCC1)Nc1ccc(Cn2nnc3c2C(=O)c2nnn(Cc4ccc(NC(=O)CCCCN5CCOCC5)cc4)c2C3=O)cc1 | 0.185 µM | 0.639 µM
O=C(c1cccs1)N(C(=S)N1CCN(c2ccccc2)CC1)C1CCCCC1 | – | > 100 µM
Cc1nn(CCO)c(C)c1N=[N+]([O-])c1c(C)nn(CCO)c1C | 17.5 µM | 34.3 µM
CC[C@@]1(O)C(=O)OCc2c1cc1n(c2=O)Cc2c-1nc1ccccc1c2Cl | – | 8.92 µM
COc1nc(Cl)nc(Cl)c1Cl (tested in a mixture with another compound) | – | 28 µM
Nn1c2c(c3ccccc3c1=O)C(=O)c1ccccc1-2 | > 50 µM | > 50 µM
